Laboratory results taken from PubChem BioAssay AID504333 (National Center for Advancing Translational Sciences (NCATS), 2011).
The campaign covered roughly 360,000 compounds. About 16,000 (4.4%) were called active. The inconclusive results got no clear call from the source; some entries with a clear call stand among them for comparison. Calls come from the whole dose curve; as a rule, active = well fitted inhibition curve with a large enough effect; inconclusive = small, poorly fitted or top-dose-only effect; inactive = no such curve, though single readings can be large or run the other way. Where the call is inconclusive, the potency comes from a doubtful curve fit.
% is set by controls: 0 for no effect and ±100 for the full control effect; potency is the fitted concentration of half-maximal effect; tags give direction and shape of the fitted curve.
Note: nearly all actives have a fitted effect of over 60% in size.

The molecules below were run against Bromodomain adjacent to zinc finger domain protein 2B (Homo sapiens) (UniProt Q9UIF8) (assay: qHTS Assay for Inhibitors of BAZ2B). Settings: AlphaScreen BAZ2B-H3K14Ac peptide displacement; activity change, negative = inhibition: at 114 µM (top of the series).
Chain of UniProt Q9UIF8 (Q9UIF8 whole entry, looked up, the tested form may be a part): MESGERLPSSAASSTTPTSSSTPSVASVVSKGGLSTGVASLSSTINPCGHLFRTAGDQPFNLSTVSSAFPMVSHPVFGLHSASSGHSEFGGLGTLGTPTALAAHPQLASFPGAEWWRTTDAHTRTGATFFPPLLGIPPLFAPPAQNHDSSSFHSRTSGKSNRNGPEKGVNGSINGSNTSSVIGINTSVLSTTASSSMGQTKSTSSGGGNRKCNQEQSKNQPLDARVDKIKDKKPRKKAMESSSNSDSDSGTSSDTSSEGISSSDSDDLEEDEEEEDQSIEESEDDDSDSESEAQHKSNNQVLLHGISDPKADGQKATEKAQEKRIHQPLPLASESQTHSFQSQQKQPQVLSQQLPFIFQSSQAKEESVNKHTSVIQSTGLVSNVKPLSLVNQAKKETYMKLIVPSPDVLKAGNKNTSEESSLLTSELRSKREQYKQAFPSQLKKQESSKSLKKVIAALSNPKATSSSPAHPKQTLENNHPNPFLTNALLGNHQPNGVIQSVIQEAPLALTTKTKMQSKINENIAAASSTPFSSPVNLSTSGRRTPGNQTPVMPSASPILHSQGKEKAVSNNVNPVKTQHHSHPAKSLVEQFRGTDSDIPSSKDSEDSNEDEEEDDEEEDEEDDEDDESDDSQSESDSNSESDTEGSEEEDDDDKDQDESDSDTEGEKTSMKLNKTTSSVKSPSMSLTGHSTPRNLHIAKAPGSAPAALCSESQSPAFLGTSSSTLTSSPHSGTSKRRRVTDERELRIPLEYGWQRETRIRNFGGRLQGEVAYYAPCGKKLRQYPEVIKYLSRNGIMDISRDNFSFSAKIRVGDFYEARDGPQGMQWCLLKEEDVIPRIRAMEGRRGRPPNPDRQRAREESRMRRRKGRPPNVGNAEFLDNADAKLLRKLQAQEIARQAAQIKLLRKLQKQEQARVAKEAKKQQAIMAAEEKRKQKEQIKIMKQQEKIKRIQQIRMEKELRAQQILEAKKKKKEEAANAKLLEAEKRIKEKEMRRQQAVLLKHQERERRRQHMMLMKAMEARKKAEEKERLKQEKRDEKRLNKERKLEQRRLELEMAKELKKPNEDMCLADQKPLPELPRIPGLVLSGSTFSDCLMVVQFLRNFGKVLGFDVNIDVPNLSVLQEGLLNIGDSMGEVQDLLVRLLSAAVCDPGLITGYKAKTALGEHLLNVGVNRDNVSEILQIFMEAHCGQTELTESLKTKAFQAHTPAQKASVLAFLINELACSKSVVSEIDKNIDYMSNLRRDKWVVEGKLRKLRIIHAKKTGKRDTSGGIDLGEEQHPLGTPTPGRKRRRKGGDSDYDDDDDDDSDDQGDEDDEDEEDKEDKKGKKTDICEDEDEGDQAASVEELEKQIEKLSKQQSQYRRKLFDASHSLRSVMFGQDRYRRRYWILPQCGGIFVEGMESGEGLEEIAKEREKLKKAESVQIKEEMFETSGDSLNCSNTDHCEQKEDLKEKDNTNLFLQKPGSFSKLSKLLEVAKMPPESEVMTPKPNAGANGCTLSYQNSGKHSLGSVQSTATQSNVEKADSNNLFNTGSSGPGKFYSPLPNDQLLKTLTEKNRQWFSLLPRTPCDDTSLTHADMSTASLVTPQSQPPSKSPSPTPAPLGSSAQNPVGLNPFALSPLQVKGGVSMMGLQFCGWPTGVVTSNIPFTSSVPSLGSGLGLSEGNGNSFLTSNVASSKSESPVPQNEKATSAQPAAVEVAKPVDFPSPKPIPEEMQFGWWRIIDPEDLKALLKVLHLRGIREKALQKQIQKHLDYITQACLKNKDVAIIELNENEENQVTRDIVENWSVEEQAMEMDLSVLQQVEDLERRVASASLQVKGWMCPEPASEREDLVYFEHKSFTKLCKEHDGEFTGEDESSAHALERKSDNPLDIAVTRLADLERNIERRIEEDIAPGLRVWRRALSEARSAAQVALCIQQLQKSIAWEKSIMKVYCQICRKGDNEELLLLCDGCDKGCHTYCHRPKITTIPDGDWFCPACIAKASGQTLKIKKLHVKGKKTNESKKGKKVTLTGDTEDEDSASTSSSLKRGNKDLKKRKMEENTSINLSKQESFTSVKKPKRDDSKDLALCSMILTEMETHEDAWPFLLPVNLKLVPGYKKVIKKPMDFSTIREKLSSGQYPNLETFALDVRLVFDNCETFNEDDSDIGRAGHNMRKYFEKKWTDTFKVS
In short: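 Compounds, titrated to a top concentration of 110 uM, were incubated 30 min at room temperature with preformed BAZ2B/acetyl-K14 H3 peptide complex (50 nM each). Proximity signal was measured by AlphaScreen after 20 min with beads.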
For `O=c1c2cc(Cl)ccc2nc(-c2ccccc2)n1O`, the Potency was active: 79.4 µM.
With `COc1ccc(-c2nc3cnccn3c2Nc2ccc(C)cc2)cc1` the Potency was inconclusive: 89.1 µM [inhibitor, single point].
`CC(C)(C)SCCNS(=O)(=O)c1ccc2ccccc2c1` was tested, and the Potency was inconclusive: 11.2 µM [inhibitor, single point].
For `O=C(Nc1cc([N+](=O)[O-])ccc1N1CCCC1)c1cccs1`, the Potency was inconclusive: 70.8 µM [inhibitor, single point].
With `COc1ccc(C)cc1NC(=O)c1c2c(nc3ccccc13)C(=O)N(C1CCCCC1)C2` the Potency was inconclusive: 89.1 µM [inhibitor, single point].
For `CCOc1ccc(Br)cc1C1C(C(=O)OC)=C(C)NC2=C1C(=O)c1ccccc12` (stereo unspecified), the Potency was active: 22.4 µM.
With `CC(=O)Nc1ccc2nc(SCC(=O)O)sc2c1` the Potency was inconclusive: 79.4 µM [inhibitor, single point].
For `O=C(NCc1cccnc1)c1ccc(COc2cccc3ccccc23)o1`, the Potency was inconclusive: 79.4 µM [inhibitor, single point].
`COc1ccc(-c2nc(-c3ccccc3)ncc2S(C)(=O)=O)cc1` was tested, and the “activity change, negative = inhibition” value was inactive: -3.75%.
For `COc1cc2c(cc1OC)C(c1ccc(-c3cc(Cl)ccc3Cl)o1)=NCC2`, the Potency was inconclusive: 12.6 µM [inhibitor, partial curve].
In the case of `Cc1cc(/C=C2\C(=N)N3N=C(c4ccco4)SC3=NC2=O)c(C)n1Cc1ccccc1`, the Potency is reported as inconclusive: 20 µM [inhibitor, full curve].
For `CCN(CC)c1ccc(NC(=O)CN2CCN(c3ccccc3OC)CC2)cc1`, the Potency was active: 35.5 µM.
In the case of `Cc1onc(-c2ccccc2)c1C(=O)NC(=S)Nc1sc2c(c1C#N)CCCC2`, the Potency is reported as inconclusive: 89.1 µM [inhibitor, single point].
In the case of `COc1cc2c(cc1OC)C(c1ccccc1OC(C)C)CC(=O)N2` (stereo unspecified), the Potency is reported as inconclusive: 70.8 µM [inhibitor, single point].
In the case of `Cc1ccnc(NC(c2ccncc2)c2c(C)[nH]c3ccccc23)c1` (stereo unspecified), the Potency is reported as inconclusive: 89.1 µM [inhibitor, single point].
With `CCn1c2ccccc2c2cc(NC(=O)COC(=O)c3ccccc3Br)ccc21` the “activity change, negative = inhibition” value was inactive: -36.9%.
With `CCc1cccc(NC(=O)Cn2c(=O)n(CCC(=O)NCc3ccccc3Cl)c(=O)c3sccc32)c1` the “activity change, negative = inhibition” value was inactive: -12.9%.
`COc1ccccc1N=NC1C(=O)N(C(N)=S)N=C1C` (stereo unspecified) was tested, and the Potency was inconclusive: 31.6 µM [inhibitor, partial curve].
In the case of `Cc1nn(C(C)C(=O)Nc2ccc3c(c2)OCO3)c(C)c1[N+](=O)[O-]` (stereo unspecified), the Potency is reported as inconclusive: 79.4 µM [inhibitor, single point].
For `CCOc1ccc2c(c1)C(C)=CC(C)(C)N2`, the Potency was active: 50.1 µM.
With `COc1ccc(N2CCN(C(c3nnnn3CCc3ccccc3)C(C)C)CC2)cc1` (stereo unspecified) the Potency was inconclusive: 79.4 µM [inhibitor, partial curve, poor fit].
For `Cc1cc(C)cc(NC(=O)CSc2ccc(-c3ccco3)nn2)c1`, the Potency was inconclusive: 50.1 µM [inhibitor, partial curve].
In the case of `C/C(=N\N=C1\NC(=O)C(Cc2ccccc2)S1)c1ccccc1` (stereo unspecified), the Potency is reported as inconclusive: 63.1 µM [inhibitor, partial curve, poor fit].
`COc1ccccc1-c1n[nH]c(=S)n1N` was tested, and the Potency was inconclusive: 89.1 µM [inhibitor, single point].
`COc1ccc(/C=N/Nc2ncnc3sc4c(c23)CCCC4)cc1O` was tested, and the Potency was inconclusive: 44.7 µM [inhibitor, partial curve].
For `CN(C)Cc1nc2ccccc2c(=O)n1Cc1nc(-c2cccc([N+](=O)[O-])c2)cs1`, the “activity change, negative = inhibition” value was inactive: -35.9%.
With `COc1ccc(CNC(=O)CN2C(=O)CSc3ccc(S(=O)(=O)N(C)C)cc32)cc1` the “activity change, negative = inhibition” value was inactive: 12.8%.
`O=C(NCc1ccco1)C(c1cccs1)N(C(=O)C1COc2ccccc2O1)c1cccc(O)c1` (stereo unspecified) was tested, and the Potency was inconclusive: 44.7 µM [inhibitor, partial curve].
In the case of `COC1=C/C(=C/c2c(N)n3cc(C)sc3nc2=O)C=CC1=O`, the Potency is reported as inconclusive: 44.7 µM [inhibitor, partial curve].
`N#CCCN1CCN(C(=S)c2ccc(-c3cccc(Cl)c3)o2)CC1` was tested, and the Potency was active: 35.5 µM.
`O=C(CC1(O)C(=O)Nc2ccccc21)c1cccc(-n2cccc2)c1` (stereo unspecified) was tested, and the Potency was active: 50.1 µM.
For `N#C/C(C(=O)NCc1ccccc1)=C1/N=C(NC(=O)c2cccs2)c2ccccc21`, the Potency was inconclusive: 20 µM [inhibitor, full curve, poor fit].
In the case of `N#Cc1ccc(N2C(=O)[C@@H]3C(C(=O)c4ccc5ccccc5n4)=NN[C@@H]3C2=O)cc1`, the Potency is reported as inconclusive: 79.4 µM [inhibitor, single point].
For `COC(=O)c1sccc1S(=O)(=O)Nc1ccc(N2CCCCC2)cc1`, the Potency was active: 35.5 µM.
With `O=C(N/N=C/c1ccc2c(c1)OCO2)c1ccc(Br)o1` the Potency was active: 79.4 µM.
`CCOc1ccc(N2CC(c3nc4ccccc4n3CCCCOc3ccc(OC)cc3)CC2=O)cc1` (stereo unspecified) was tested, and the Potency was inconclusive: 22.4 µM [inhibitor, full curve].
In the case of `CCCn1c(C)cc(C(=O)COc2ncnc3sccc23)c1C`, the Potency is reported as inconclusive: 89.1 µM [inhibitor, single point].
In the case of `Cc1noc(C)c1CN1C(=O)NC2(CCCCCCC2)C1=O`, the “activity change, negative = inhibition” value is reported as inactive: -4.01%.
`COc1ccc(OC)c(-c2csc(NC(=O)c3ccc4c(c3)OCO4)n2)c1` was tested, and the Potency was inconclusive: 31.6 µM [inhibitor, partial curve].
`COc1ccc2sc(SCCCS(=O)(=O)O)[n+](CCCS(=O)(=O)[O-])c2c1` was tested, and the Potency was active: 56.2 µM.
For `O=C(O)CC/C(=N\NC(=O)c1ccncc1)c1ccccc1`, the “activity change, negative = inhibition” value was inactive: -6.5%.
With `COc1ccc(Nc2cc(C)c3c(O)cccc3n2)cc1` the Potency was active: 44.7 µM.
In the case of `CC(C)c1c(C(=O)N/N=C/c2cccnc2)nnn1-c1nonc1N`, the Potency is reported as inconclusive: 100 µM [inhibitor, single point].
With `CNC(=S)Nc1cccc(Cl)c1C` the “activity change, negative = inhibition” value was inactive: -16.4%.
In the case of `CCc1ccc(NS(=O)(=O)c2ccc(-c3cc(C)no3)cc2)cc1`, the “activity change, negative = inhibition” value is reported as inactive: -1%.
For `c1ccc(-n2nnnc2SCc2cn3ccccc3n2)cc1`, the Potency was inconclusive: 39.8 µM [inhibitor, single point].
